# Values of other authors, collected in publication PMC10936414 (mBio, 2024).
# Tested on: SARS-CoV-2
# Conditions: cited from earlier work
smiles,measurement,value
"CC(=O)Oc1ccccc1C(=O)Nc1ncc([N+](=O)[O-])s1 [Nitazoxanide, nitazoxanide]",inhibition of SARS-CoV-2 infection (in words),inhibit SARS-CoV-2 infection
